Data taken from article PMC9911399, “Two distinct binding modes provide the RNA-binding protein RbFox with extraordinary sequence specificity”.
Changes are numbered by the printed parent chain; changes in the protein carry UniProt numbers. This is one part of the list.

T1: RBFOX1 RRM (Homo sapiens, UniProt Q9NWB1 109-208)
T1 sequence: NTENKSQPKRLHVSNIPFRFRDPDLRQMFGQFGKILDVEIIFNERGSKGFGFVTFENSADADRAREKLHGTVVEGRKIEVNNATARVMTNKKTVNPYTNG

B1: UGAGGGC (DNA:RNA)
RNA: GGGAGACCGGAAUUCAGAUUGUCCUGAGGGCUUAAAUCCCGUCGUAGCCACCA
DNA 1: CAATCTGAATTCCGGTCTCCC
DNA 2: TGGTGGCTACGACGGGATT
B2: UCAGCAG (DNA:RNA)
RNA: B1 RNA with G26C, G29C, G30A, C31G
DNA 1: CAATCTGAATTCCGGTCTCCC
DNA 2: TGGTGGCTACGACGGGATT
B3: GACUGUA (DNA:RNA)
RNA: B1 RNA with U25G, G26A, A27C, G28U, G30U, C31A
DNA 1: CAATCTGAATTCCGGTCTCCC
DNA 2: TGGTGGCTACGACGGGATT
B4: GAUCCAA (DNA:RNA)
RNA: GGGAGACCGGAAUUCAGAUUGUCCGAUCCAAUUAAAUCCCGUCGUAGCCACCA
DNA 1: CAATCTGAATTCCGGTCTCCC
DNA 2: TGGTGGCTACGACGGGATT
B5: ACCGCAC (DNA:RNA)
RNA: B4 RNA with G25A, A26C, U27C, C28G, A31C
DNA 1: CAATCTGAATTCCGGTCTCCC
DNA 2: TGGTGGCTACGACGGGATT
B6: UUAAAGU (DNA:RNA)
RNA: B1 RNA with G26U, G28A, G29A, C31U
DNA 1: CAATCTGAATTCCGGTCTCCC
DNA 2: TGGTGGCTACGACGGGATT
B7: GUGUGAU (DNA:RNA)
RNA: B4 RNA with A26U, U27G, C28U, C29G, A31U
DNA 1: CAATCTGAATTCCGGTCTCCC
DNA 2: TGGTGGCTACGACGGGATT
B8: CUUGUGU (DNA:RNA)
RNA: B1 RNA with U25C, G26U, A27U, G29U, C31U
DNA 1: CAATCTGAATTCCGGTCTCCC
DNA 2: TGGTGGCTACGACGGGATT
B9: GCCGCCA (DNA:RNA)
RNA: B4 RNA with A26C, U27C, C28G, A30C
DNA 1: CAATCTGAATTCCGGTCTCCC
DNA 2: TGGTGGCTACGACGGGATT

What follows are binders tested against T1, RBFOX1 RRM (assay: EMSA; HiTS-Eq, 1 nM pool, 10 min; buffer printed only for the single-RNA assays: 10 mM Tris pH 7.5, 150 mM NaCl, 3.4 mM EDTA, 0.001% NP-40, 30 C). Settings: tags: His6 N-terminal (pET28a); label: 5' 32P.
In short: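 These values rest on relative association constants, computed from read-count changes of each RNA species versus the control reaction and normalised to the cognate motif. Reads came from free RNA recovered by 8% native PAGE after purified RbFox RRM (wild type or mutant) at increasing concentrations was equilibrated for 10 min in 50 µL with 1 nM of a 5′-radiolabelled pool with 7 randomized nucleotides and DNA-annealed flanks.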
In the case of B1, the binding signal is reported as 0.00686 KA relative to UGCAUGU.
With B2 the binding signal was 0.00796 KA relative to UGCAUGU.
With B3 the binding signal was 0.0131 KA relative to UGCAUGU.
B4 was tested, and the binding signal was 0.00466 KA relative to UGCAUGU.
B5 was tested, and the binding signal was 0.00343 KA relative to UGCAUGU.
B6 was tested, and the binding signal was 0.00914 KA relative to UGCAUGU.
B7 was tested, and the binding signal was 0.0151 KA relative to UGCAUGU.
B8 was tested, and the binding signal was 0.0213 KA relative to UGCAUGU.
In the case of B9, the binding signal is reported as 0.00445 KA relative to UGCAUGU.
